According to the supplement of paper PMC4967469:
IC50 is the fitted dose that halves viability relative to control wells, and lower means more sensitive; a fit beyond the top or the lowest dose is shown as a bound at that dose. AUC is the area under the same curve over the 256-fold range up to the top dose, as a fraction; the more sensitive the line, the further below 1. The top dose, if marked as inferred, was derived from the fitted curves, not read from the paper. For part of these data: An entry number marks a drug with two screens in the source, which often give different values.

Experiments:
Assay in all cases: Viability of human cancer cell lines after 72 h of drug (GDSC screen)
Wee1 inhibitor 681640 = compound: O=C1NC(=O)c2c1c(-c1ccccc1Cl)cc1[nH]c3ccc(O)cc3c21 [Wee1 inhibitor 681640]; details: top dose 2 µM; top dose inferred
Protocol: (§1)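 Human cancer cell lines in 384-well plates, medium with 10% serum, drug for 72 h over a 256-fold dose range (nine 2-fold or five 4-fold steps up to the top dose). Adherent lines were fixed and stained with the nucleic acid dye Syto60, suspension lines read with resazurin; signal relative to control wells, capped at 0 and 100%. One two-parameter sigmoid per drug and line, fitted in a mixed model over all curves with the slope shared within a line.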

VX-702 = compound: NC(=O)c1ccc(N(C(N)=O)c2c(F)cccc2F)nc1-c1ccc(F)cc1F [VX-702]; details: top dose 2 µM; top dose inferred
Protocol: as §1

Shikonin = compound: CC(C)=CC[C@@H](O)C1=CC(=O)c2c(O)ccc(O)c2C1=O [Shikonin]; details: top dose 16 µM; top dose inferred
Protocol: as §1

BIRB 0796 = compound: Cc1ccc(-n2nc(C(C)(C)C)cc2NC(=O)Nc2ccc(OCCN3CCOCC3)c3ccccc23)cc1 [BIRB 0796]; details: top dose 10 µM; top dose inferred
Protocol: as §1

SB-525334 = compound: Cc1cccc(-c2[nH]c(C(C)(C)C)nc2-c2ccc3nccnc3c2)n1 [SB-525334]; details: top dose 20 µM; top dose inferred
Protocol: as §1

BMS-536924 = compound: Cc1cc(N2CCOCC2)cc2[nH]c(-c3c(NC[C@@H](O)c4cccc(Cl)c4)cc[nH]c3=O)nc12 [BMS-536924]; details: top dose 4 µM; screen: GDSC drug entry 1091; top dose inferred
Protocol: as §1

Olaparib = compound: O=C(c1cc(Cc2n[nH]c(=O)c3ccccc23)ccc1F)N1CCN(C(=O)C2CC2)CC1 [Olaparib]
Protocol: as §1

[1] = top dose 5 µM, screen: GDSC drug entry 1017, top dose inferred
[2] = top dose 10 µM, screen: GDSC drug entry 1495

Cell Line	AUC (Wee1 inhibitor 681640)	IC50 (Wee1 inhibitor 681640) [µM]	AUC (VX-702)	IC50 (VX-702) [µM]	AUC (Shikonin)	IC50 (Shikonin) [µM]	AUC (BIRB 0796)	IC50 (BIRB 0796) [µM]	AUC (SB-525334)	IC50 (SB-525334) [µM]	AUC (BMS-536924)	IC50 (BMS-536924) [µM]	AUC (Olaparib; [1])	IC50 (Olaparib; [1]) [µM]	AUC (Olaparib; [2])	IC50 (Olaparib; [2]) [µM]
KMRC-1 (kidney, adherent)	0.977	> 2	0.983	> 2	0.395	0.506	0.981	> 10	0.98	> 20	0.96	> 4	0.985	> 5		
KON (head and neck, adherent)	0.746	0.622	0.987	> 2	0.342	0.367	0.912	> 10	0.987	> 20	0.932	> 4	0.96	> 5	0.918	> 10
KP-2 (pancreas, adherent)	0.954	> 2	0.979	> 2	0.571	1.59	0.965	> 10	0.977	> 20	0.788	1.91	0.986	> 5	0.939	> 10
KP-3 (pancreas, adherent)	0.968	> 2	0.984	> 2	0.594	1.9	0.945	> 10	0.952	> 20	0.869	> 4	0.984	> 5	0.968	> 10
KYM-1 (rhabdomyosarcoma, adherent)	0.921	> 2	0.989	> 2	0.461	0.797	0.916	> 10	0.978	> 20	0.987	> 4	0.946	> 5	0.918	> 10
KYSE-520 (oesophagus, adherent)	0.904	> 2	0.977	> 2	0.399	0.48	0.957	> 10	0.965	> 20	0.964	> 4	0.979	> 5	0.979	> 10
LCLC-103H (large cell lung carcinoma, adherent)	0.98	> 2	0.989	> 2	0.291	0.275	0.99	> 10	0.982	> 20	0.987	> 4	0.981	> 5	0.99	> 10
LN-18 (glioma, adherent)	0.965	> 2	0.994	> 2	0.611	1.89	0.96	> 10	0.989	> 20	0.983	> 4	0.994	> 5	0.989	> 10
LN-229 (glioma, adherent)	0.933	> 2	0.987	> 2	0.452	0.74	0.985	> 10	0.953	> 20	0.978	> 4	0.986	> 5	0.875	9.75
LNZTA3WT4 (glioma, adherent)	0.988	> 2	0.989	> 2	0.454	0.752	0.951	> 10	0.961	> 20	0.973	> 4	0.988	> 5	0.951	> 10
LU-135 (small cell lung carcinoma, suspension)	0.973	> 2	0.992	> 2	0.477	0.873	0.978	> 10	0.919	> 20	0.98	> 4	0.96	> 5	0.97	> 10
MC-IXC (neuroblastoma, adherent)	0.86	1.01	0.996	> 2	0.364	0.467	0.989	> 10	0.823	7.91	0.961	> 4	0.889	3.09	0.775	2.95
MDA-MB-361 (breast, adherent)	0.964	> 2	0.984	> 2	0.526	1.18	0.954	> 10	0.942	> 20	0.945	> 4	0.986	> 5	0.975	> 10
MDA-MB-453 (breast, adherent)	0.982	> 2	0.984	> 2	0.62	2.23	0.969	> 10	0.883	> 20	0.98	> 4	0.985	> 5	0.958	> 10
MEL-JUSO (melanoma, adherent)	0.982	> 2	0.982	> 2	0.348	0.36	0.864	> 10	0.545	1.68	0.825	2.78	0.964	> 5	0.959	> 10
MG-63 (osteosarcoma, adherent)	0.964	> 2	0.97	> 2	0.267	0.192	0.976	> 10	0.983	> 20	0.848	3.71	0.95	> 5		
